Some results were stated once for a whole list of compounds, not compound by compound.
Legend:
Type in all cases: in vivo
[1] = system: Boll Weevil (Anthonomus grandis); assay: Boll weevil microtiter plate diet test; settings: 2500 ppm; egg and larval mortality after 5 days; in comparison with untreated controls
Procedure: For evaluating control of boll weevil (Anthonomus grandis) the test unit consisted of 24-well-microtiter plates containing an insect diet and 20-30 A. grandis eggs.
The compounds were formulated using a solution containing 75% v/v water and 25% v/v DMSO. Different concentrations of formulated compounds were sprayed onto the insect diet at 20 μl, using a custom built micro atomizer, at two replications. After application, microtiter plates were incubated at about 23±1° C. and about 50±5% relative humidity for 5 days. Egg and larval mortality was then visually assessed.

[2] = system: Orchid Thrips (Dichromothrips corbetti); assay: Orchid thrips floral-immersion test; settings: 300 ppm; after 4 days; in comparison with untreated controls
Procedure: Dichromothrips corbetti adults used for bioassay are obtained from a colony maintained continuously under laboratory conditions. For testing purposes, the test compound is diluted to a concentration of 300 ppm (wt compound: vol diluent) in a 1:1 mixture of acetone:water (vol:vol), plus 0.01% vol/vol Kinetic® surfactant.
Thrips potency of each compound is evaluated by using a floral-immersion technique. Plastic petri dishes are used as test arenas. All petals of individual, intact orchid flowers are dipped into treatment solution and allowed to dry. Treated flowers are placed into individual petri dishes along with 10-15 adult thrips. The petri dishes are then covered with lids. All test arenas are held under continuous light and a temperature of about 28° C. for duration of the assay. After 4 days, the numbers of live thrips are counted on each flower, and along inner walls of each petri dish. The level of thrips mortality is extrapolated from pre-treatment thrips numbers.

[3] = system: Vetch Aphid (Megoura viciae); assay: Vetch aphid leaf disk microtiter plate test; settings: 2500 ppm; after 5 days; in comparison with untreated controls
Procedure: For evaluating control of vetch aphid (Megoura viciae) through contact or systemic means the test unit consisted of 24-well-microtiter plates containing broad bean leaf disks.
The compounds were formulated using a solution containing 75% v/v water and 25% v/v DMSO. Different concentrations of formulated compounds were sprayed onto the leaf disks at 2.5 μl, using a custom built micro atomizer, at two replications. After application, the leaf disks were air-dried and 5-8 adult aphids placed on the leaf disks inside the microtiter plate wells. The aphids were then allowed to suck on the treated leaf disks and incubated at about 23±1° C. and about 50±5% relative humidity for 5 days. Aphid mortality and fecundity was then visually assessed.

[4] = system: Southern Armyworm (Spodoptera eridania); assay: Southern armyworm lima bean foliar spray test; settings: 300 ppm; 4 days after treatment; in comparison with untreated controls
Procedure: (§1) The active compounds were formulated in cyclohexanone as a 10,000 ppm solution supplied in tubes. The tubes were inserted into an automated electrostatic sprayer equipped with an atomizing nozzle and they served as stock solutions for which lower dilutions were made in 50% acetone:50% water (v/v). A nonionic surfactant (Kinetic®) was included in the solution at a volume of 0.01% (v/v).
(§2) Lima bean plants (variety Sieva) were grown 2 plants to a pot and selected for treatment at the 1st true leaf stage. Test solutions were sprayed onto the foliage by an automated electrostatic plant sprayer equipped with an atomizing spray nozzle. The plants were dried in the sprayer fume hood and then removed from the sprayer. Each pot was placed into perforated plastic bags with a zip closure. About 10 to 11 armyworm larvae were placed into the bag and the bags zipped closed. Test plants were maintained in a growth room at about 25° C. and about 20-40% relative humidity for 4 days, avoiding direct exposure to fluorescent light (24 hour photoperiod) to prevent trapping of heat inside the bags. Mortality and reduced feeding were assessed 4 days after treatment, compared to untreated control plants.

[5] = system: Mediterranean Fruitfly (Ceratitis capitata); assay: Mediterranean fruitfly microtiter plate diet test; settings: 2500 ppm; egg and larval mortality after 5 days; in comparison with untreated controls
Procedure: For evaluating control of Mediterranean fruitfly (Ceratitis capitata) the test unit consisted of microtiter plates containing an insect diet and 50-80 C. capitata eggs. The compounds were formulated using a solution containing 75% v/v water and 25% v/v DMSO. Different concentrations of formulated compounds were sprayed onto the insect diet at 5 μl, using a custom built micro atomizer, at two replications.
After application, microtiter plates were incubated at about 28±1° C. and about 80±5% relative humidity for 5 days. Egg and larval mortality was then visually assessed.

[6] = system: Diamond Back Moth (Plutella xylostella); assay: Diamond back moth leaf dip test; settings: 300 ppm; recorded 24, 72, and 120 hours after treatment; in comparison with untreated controls
Procedure: (§3) The active compound is dissolved at the desired concentration in a mixture of 1:1 (vol:vol) distilled water:acteon. The test solution is prepared at the day of use and in general at concentrations of […].
Leaves of Chinese cabbage were dipped in test solution and air-dried. Treated leaves were placed in petri dished lined with moist filter paper. Mortality was recorded 24, 72, and 120 hours after treatment.

[7] = system: Tobacco Budworm (Heliothis virescens); assay: Tobacco budworm cotton plant foliar spray test; settings: 2500 ppm; 4 days after treatment; in comparison with untreated controls
Procedure: as §1
as §2, with “Cotton” for “Lima bean”, “plants” for “plants (variety Sieva)”, “cotyledon” for “1st true leaf”, “budworm” for “armyworm”

[8] = system: Red Spider Mite (Tetranychus kanzawai); assay: Red spider mite cowpea bean spray test; settings: 500 ppm; after 72 h; in comparison with untreated controls
[9] = system: Silverleaf Whitefly (Bemisia argentifolii); assay: Silverleaf whitefly cotton plant spray test; settings: 300 ppm; 3 days after treatment; in comparison with untreated controls
Text: as §1
Cotton plants at the cotyledon stage (one plant per pot) were sprayed by an automated electrostatic plant sprayer equipped with an atomizing spray nozzle. The plants were dried in the sprayer fume hood and then removed from the sprayer. Each pot was placed into a plastic cup and about 10 to 12 whitefly adults (approximately 3-5 days old) were introduced. The insects were collected using an aspirator and a nontoxic Tygon® tubing connected to a barrier pipette tip. The tip, containing the collected insects, was then gently inserted into the soil containing the treated plant, allowing insects to crawl out of the tip to reach the foliage for feeding. Cups were covered with a reusable screened lid. Test plants were maintained in a growth room at about 25° C. and about 20-40% relative humidity for 3 days, avoiding direct exposure to fluorescent light (24 hour photoperiod) to prevent trapping of heat inside the cup. Mortality was assessed 3 days after treatment, compared to untreated control plants.

[10] = system: Cowpea Aphid (Aphis craccivora); assay: Cowpea aphid spray test on potted cowpea plants; settings: 300 ppm; population reduction assessed after 24, 72, and 120 hours; in comparison with untreated controls
Procedure: as §3
Potted cowpea plants colonized with approximately 100-150 aphids of various stages were sprayed after the pest population has been recorded. Population reduction was assessed after 24, 72, and 120 hours.

[11] = system: yellowfever mosquito larvae (Aedes aegypti); assay: Larval mosquito water treatment assay; settings: 1 ppm; 5 DAT (days after treatment); first tier test; in comparison with untreated controls
Procedure: The assay was conducted in 6-well polystyrene plates using one plate per treatment rate. Stock solutions were prepared at 100 and 1000 ppm. Screen rates were at 1 and 10 ppm. Distilled water was added to each well, control wells were treated with acetone. Temephos (Abate technical) was used as the standard at 0.1 ppm. Ten late thirdinstar yellowfever mosquito larvae (Aedes aegypti) in water were added to each well. One drop of liver powder solution (6 g in 100 ml distilled water) was added to each well as a food source daily. Plates were maintained at 22-25° C. and 25-50% RH (relative humidity) and observed daily for dead larvae and pupae at 1, 2, 3, and 5 days after treatment. Dead larvae and all pupae were removed daily. Mortality was defined as an insect incapable of coordinated movement when agitated.

Measured: mortality

Cc1cc(C2=NOC(c3cc(Cl)cc(Cl)c3)(C(F)(F)F)C2)ccc1C(=NO)NCC(F)(F)F (stereo not drawn) [Compound 1-4]
not listed: [8] | [9] | [10] | [11]
at least 75%: all other assays above

CON=C(NCC(F)(F)F)c1ccc(C2=NOC(c3cc(Cl)cc(Cl)c3)(C(F)(F)F)C2)cc1C (stereo not drawn) [Compound 1-5]
at least 75%: [1] | [4] | [5] | [6] | [7]

CON=C(c1ccc(C2=NOC(c3cc(Cl)cc(Cl)c3)(C(F)(F)F)C2)cc1C)N(C)CC(F)(F)F (stereo not drawn) [Compound 1-6]
not listed: [2] | [10] | [11]
at least 75%: all other assays above

CON=C(NCc1ccccn1)c1ccc(C2=NOC(c3cc(Cl)cc(Cl)c3)(C(F)(F)F)C2)cc1C (stereo not drawn) [Compound 1-11]
at least 75%: [1] | [10] | [2] | [5] | [6] | [7]

Cc1cc(C2=NOC(c3cc(Cl)cc(Cl)c3)(C(F)(F)F)C2)ccc1C(=NO)NCC(=O)NCC(F)(F)F (stereo not drawn) [Compound 1-12]
not listed: [8] | [9] | [10]
at least 75%: all other assays above

CCNC(=O)CNC(=NO)c1ccc(C2=NOC(c3cc(Cl)cc(Cl)c3)(C(F)(F)F)C2)cc1C (stereo not drawn) [Compound 1-13]
at least 75%: all assays above

Cc1cc(C2=NOC(c3cc(Cl)cc(Cl)c3)(C(F)(F)F)C2)ccc1-c1noc(CCC(F)(F)F)n1 (stereo not drawn) [Compound 9-1]
at least 75%: [4] | [6] | [7]

CCc1nc(-c2ccc(C3=NOC(c4cc(Cl)cc(Cl)c4)(C(F)(F)F)C3)cc2C)no1 (stereo not drawn) [Compound 9-3]
at least 75%: [4] | [5] | [7]

Cc1cc(C2=NOC(c3cc(Cl)cc(Cl)c3)(C(F)(F)F)C2)ccc1-c1noc(C(F)(F)F)n1 (stereo not drawn) [Compound 9-5]
at least 75%: [6]

Cc1cc(C2=NOC(c3cc(Cl)cc(Cl)c3)(C(F)(F)F)C2)ccc1-c1noc(Cc2ccccc2)n1 (stereo not drawn) [Compound 9-7]
at least 75%: [7]

Cc1cc(C2=NOC(c3cc(Cl)cc(Cl)c3)(C(F)(F)F)C2)ccc1-c1noc(COc2ccccc2)n1 (stereo not drawn) [Compound 9-8]
at least 75%: [7]

COCc1nc(-c2ccc(C3=NOC(c4cc(Cl)cc(Cl)c4)(C(F)(F)F)C3)cc2C)no1 (stereo not drawn) [Compound 9-9]
at least 75%: [5] | [6] | [7]

Cc1cc(C2=NOC(c3cc(Cl)cc(Cl)c3)(C(F)(F)F)C2)ccc1-c1noc(C(C)C)n1 (stereo not drawn) [Compound 9-10]
at least 75%: [4] | [5] | [7]

— US8633134B2, “Substituted amidine compounds for combating animal pests” (priority 2008, dated 2014)
